Measurements reported in patent US11542313B2, “Incretin analogs and uses thereof” (Eli Lilly and Company, priority 2017, dated 2023).
For at least one compound, name, drawing or mass did not settle the structure. Marks after values point to notes of the source that are not given here. *1 amine or outer side, *2 acyl side, *3 side chain or, on linkers, in order; H or OH if unused. Where a SMILES comes first, the peptide text is derived from it. Side-chain parts run from the residue outwards. [ ]: non-standard residue; d: D form. The star is where a group is joined. C20 diacid = O=C(O)CCCCCCCCCCCCCCCCCCC(=O)*; γGlu = O=C(O)[C@H](CCC(=O)[*:2])N[*:1]; αMeL = CC(C)C[C@](C)(N)C(=O)O; AEEA = NCCOCCOCC(=O)O; Aib = CC(C)(N)C(=O)O

Key:
male Wistar rats = test: Intravenous glucose tolerance test (ivGTT), insulin secretion in male Wistar rats; assay type: in vivo, rat; parameters: unit not given here; conditions: mean ± SEM, n=6
Method: An intravenous glucose tolerance test (ivGTT) in rats (male Wistar) is used to estimate insulinotropic potency of the exemplary analogs. The GLP-1 RA semaglutide is used as a positive control. Rats with surgically implanted cannulas in the jugular vein and carotid artery (Envigo, Indianapolis, Ind.; 280-320 grams) are housed one per cage in polycarbonate cages with filter tops. Rats are maintained on a 12-hour light-dark cycle at 21° C. and receive 2014 Teklad Global Diet (Envigo, Indianapolis) and deionized water ad libitum. Rats are randomized by body weight and dosed 1.5 mL/kg subcutaneous (sc) with exemplary analogs 16 hours prior to glucose administration, and then fasted. Stock concentrations of […] of the exemplary analogs are diluted in Tris buffer pH 8.0 to 6.667 nMol/mL, 2.0 nMol/mL, 0.667 nMol/mL, 0.2 nMol/mL; doses tested are vehicle, 1, 3 and 10 nMol/kg, and, in some cases 0.3 and 30 nMol/kg. Semaglutide is used as positive control, and its insulinotropic effects are measured both in its own test (vehicle and 1, 3, 10 and 30 nMol/kg doses) and in connection with each run of the exemplary analogs (10 nMol/kg dose).
A time 0 blood sample is collected into EDTA tubes after which glucose is administered ([…], 5 mL/kg). Blood samples are collected for glucose and insulin levels at time 2, 4, 6, 10, 20, and 30 minutes post intravenous administration of glucose. Plasma insulin is determined using an electrochemiluminescence assay (Meso Scale, Gaithersburg, Md.).
Statistical analysis is performed using JMP with a one-way ANOVA followed by Dunnett's comparison to the vehicle control.

[1] = system: diet-induced obese (DIO) C57BL/6 mice; test: Diet-induced obese C57BL/6 mice, 15-day study; assay type: in vivo, mouse; conditions: for Body weight Δ from vehicle: day 15, DIO mice; for Body weight % change: days 1 to 15, DIO mice; for ALT / Cholesterol / Glucose / Liver Triglycerides / Plasma Insulin: 3 nmol/kg, after fifteen days, DIO mice, mean ± SEM
Method: The exemplary incretin analogs as described herein are proposed as a treatment not only for diabetes but also for metabolic syndrome, which is a collection of co-morbidities (dyslipidemia, obesity, hepatic steatosis, etc.) associated with insulin resistance and diabetes. To investigate the effects of the exemplary analogs on parameters such as weight loss, metabolism, body composition and hepatic steatosis, they were dosed to C57BL/6 diet-induced obese (DIO) mice. These animals, although not diabetic, display insulin resistance, dyslipidemia and hepatic steatosis, all characteristics of metabolic syndrome, after being placed on a high-fat diet for 18 weeks.
Specifically, DIO male C57BL/6 mice 24 to 25 weeks old maintained on a calorie-rich diet are used in the following studies. Mice are individually housed in a temperature-controlled (24° C.) facility with 12-hour light/dark cycle (lights on 22:00) and free access to food (TD95217) and water. After a minimum of 2 weeks acclimation to the facility, the mice are randomized according to their body weight, so each experimental group of animals would have similar body weight. The body weights range from 40 to 51 g.
All groups contain 5-6 mice. Vehicle, exemplary analogs dissolved in vehicle (40 mM Tris-HCl at pH 8.0), and semaglutide dissolved in vehicle are administered by subcutaneous (SC) injection (10 mL/kg) to ad libitum fed DIO mice 30 to 90 minutes prior to the onset of the dark cycle every 3 days for 15 days. SC injections are made on Day 1, 4, 7, 10 and 13. Body weight and food intake are measured daily throughout the study.
Absolute changes in body weight are calculated by subtracting the body weight of the same animal prior to the first injection of vehicle, analog or semaglutide. On Days 0 and 15, total fat mass is measured by nuclear magnetic resonance (NMR) using an Echo Medical System Instrument (Houston, Tex.). On Day 15, animals are sacrificed prior to dark photoperiod, and the livers are removed and frozen. Liver triglycerides, determined from homogenates of livers collected at sacrifice, and plasma cholesterol are measured on a Hitachi Modular P clinical analyzer.
Data are presented as mean±SEM of 5-6 animals per group in Tables 7 and 8 below. Statistical analysis is performed using repeated measures ANOVA, followed by Dunnett's method for multiple comparisons. Significant differences are identified at p<0.05.

[2] = 1 nmol/kg sc 16 hours before glucose
[3] = 3 nmol/kg sc 16 hours before glucose
[4] = 10 nmol/kg sc 16 hours before glucose

Row | SMILES | AUC30min of Insulin after a Bolus IV Glucose (male Wistar rats; [2]) | AUC30min of Insulin after a Bolus IV Glucose (male Wistar rats; [3]) | AUC30min of Insulin after a Bolus IV Glucose (male Wistar rats; [4]) | Body weight Δ from vehicle ([1]; 3 nmol/kg SC every 3 days) [g] | Body weight % change ([1]; 3 nmol/kg SC every 3 days) [%] | ALT [1] [IU/L] | Cholesterol [1] [mg/dL] | Glucose [1] [mg/dL] | Liver Triglycerides [1] [mg/g tissue] | Plasma Insulin [1] [pg/mL] | Body weight Δ from vehicle ([1]; 10 nmol/kg SC every 3 days) [g] | Body weight % change ([1]; 10 nmol/kg SC every 3 days) [%] | Body weight Δ from vehicle ([1]; 30 nmol/kg SC every 3 days) [g] | Body weight % change ([1]; 30 nmol/kg SC every 3 days) [%]
1 | CC[C@H](C)[C@H](NC(=O)[C@H](Cc1ccccc1)NC(=O)[C@H](C)NC(=O)C(C)(C)NC(=O)[C@H](CCC(N)=O)NC(=O)[C@H](C)NC(=O)[C@H](CCCCNC(=O)COCCOCCNC(=O)CC[C@H](NC(=O)CCCCCCCCCCCCCCCCCCC(=O)O)C(=O)O)NC(=O)[C@H](CCCCN)NC(=O)[C@H](CC(=O)O)NC(=O)[C@H](CC(C)C)NC(=O)[C@](C)(CC(C)C)NC(=O)[C@@H](NC(=O)[C@H](CO)NC(=O)[C@H](Cc1ccc(O)cc1)NC(=O)[C@H](CC(=O)O)NC(=O)[C@H](CO)NC(=O)[C@@H](NC(=O)[C@H](Cc1ccccc1)NC(=O)[C@@H](NC(=O)CNC(=O)[C@H](CCC(N)=O)NC(=O)C(C)(C)NC(=O)[C@@H](N)Cc1ccc(O)cc1)[C@@H](C)O)[C@@H](C)O)[C@@H](C)CC)C(=O)N[C@@H](CCC(=O)O)C(=O)N[C@@H](Cc1ccc(O)cc1)C(=O)N[C@@H](CC(C)C)C(=O)N[C@@H](CC(C)C)C(=O)N[C@@H](CCC(=O)O)C(=O)NCC(=O)NCC(=O)N1CCC[C@H]1C(=O)N[C@@H](CO)C(=O)N[C@@H](CO)C(=O)NCC(=O)N[C@@H](C)C(=O)N1CCC[C@H]1C(=O)N1CCC[C@H]1C(=O)N1CCC[C@H]1C(=O)N[C@@H](CO)C(N)=O [Example 12] | 32.4 +/− 2.4* | 44.8 ± 2.3 | 53.6 ± 6.0*+ | -8.40 ± 0.77 | −19.33 ± 1.66 | 58.6 ± 6.03 | 169.0 ± 8.15 | 114.9 ± 2.12 | 98.2 ± 13.2 | 1691 ± 231.3 | -10.34 ± 0.69 | −23.37 ± 1.40 | -17.44 ± 1.37 | −46.60 ± 3.78
2 | CC[C@H](C)[C@H](NC(=O)[C@H](Cc1ccccc1)NC(=O)[C@H](C)NC(=O)C(C)(C)NC(=O)[C@H](CCC(N)=O)NC(=O)[C@H](C)NC(=O)[C@H](CCCCNC(=O)COCCOCCNC(=O)CC[C@H](NC(=O)CCCCCCCCCCCCCCCCCCC(=O)O)C(=O)O)NC(=O)[C@H](CCCCN)NC(=O)[C@H](CC(=O)O)NC(=O)[C@H](CC(C)C)NC(=O)[C@](C)(CC(C)C)NC(=O)[C@@H](NC(=O)[C@H](CO)NC(=O)[C@H](Cc1ccc(O)cc1)NC(=O)[C@H](CC(=O)O)NC(=O)[C@H](CO)NC(=O)[C@@H](NC(=O)[C@H](Cc1ccccc1)NC(=O)[C@@H](NC(=O)CNC(=O)[C@H](CCC(N)=O)NC(=O)C(C)(C)NC(=O)[C@@H](N)Cc1ccc(O)cc1)[C@@H](C)O)[C@@H](C)O)[C@@H](C)CC)C(=O)N[C@@H](CCC(=O)O)C(=O)N[C@@H](Cc1ccc(O)cc1)C(=O)N[C@@H](CC(C)C)C(=O)N[C@@H](CC(C)C)C(=O)N[C@@H](CCC(=O)O)C(=O)NC(C)(C)C(=O)NCC(=O)N1CCC[C@H]1C(=O)N[C@@H](CO)C(=O)N[C@@H](CO)C(=O)NCC(=O)N[C@@H](C)C(=O)N1CCC[C@H]1C(=O)N1CCC[C@H]1C(=O)N1CCC[C@H]1C(=O)N[C@@H](CO)C(N)=O [Example 13] (H-Y[Aib]QGTFTSDYSI[αMeL]LDKK([AEEA-γGlu-C20 diacid])AQ[Aib]AFIEYLLE[Aib]GPSSGAPPPS-NH2) | 25.8 ± 2.7 | 47.3 ± 8.0 | 70.6 ± 4.8 | -4.92 ± 0.86 | −10.14 ± 1.87 | 54.4 ± 6.82 | 192.2 ± 11.44 | 119.7 ± 4.19 | 94.5 ± 22.0 | 2903 ± 737.4 | -11.02 ± 0.77 | −23.80 ± 1.25 | -21.12 ± 2.09 | 
3 | CC[C@H](C)[C@H](NC(=O)[C@H](Cc1ccccc1)NC(=O)[C@H](C)NC(=O)C(C)(C)NC(=O)[C@H](CCC(N)=O)NC(=O)[C@H](C)NC(=O)[C@H](CCCCNC(=O)COCCOCCNC(=O)COCCOCCNC(=O)CC[C@H](NC(=O)CCCCCCCCCCCCCCCCCCC(=O)O)C(=O)O)NC(=O)[C@H](CCCCN)NC(=O)[C@H](CC(=O)O)NC(=O)[C@H](CC(C)C)NC(=O)[C@H](CC(C)C)NC(=O)[C@@H](NC(=O)[C@H](CO)NC(=O)[C@H](Cc1ccc(O)cc1)NC(=O)[C@H](CC(=O)O)NC(=O)[C@H](CO)NC(=O)[C@@H](NC(=O)[C@H](Cc1ccccc1)NC(=O)[C@@H](NC(=O)CNC(=O)[C@H](CCC(N)=O)NC(=O)C(C)(C)NC(=O)[C@@H](N)Cc1ccc(O)cc1)[C@@H](C)O)[C@@H](C)O)[C@@H](C)CC)C(=O)N[C@@H](CCC(=O)O)C(=O)N[C@@H](Cc1ccc(O)cc1)C(=O)N[C@@H](CC(C)C)C(=O)N[C@@H](CC(C)C)C(=O)N[C@@H](CCC(=O)O)C(=O)NCC(=O)NCC(=O)N1CCC[C@H]1C(=O)N[C@@H](CO)C(=O)N[C@@H](CO)C(=O)NCC(=O)N[C@@H](C)C(=O)N1CCC[C@H]1C(=O)N1CCC[C@H]1C(=O)N1CCC[C@H]1C(=O)N[C@@H](CO)C(N)=O [Example 16] | 18.9 ± 3.5 | 50.3 ± 4.2 | 50.1 ± 4.2 | -7.44 ± 0.74 | −16.78 ± 1.88 | 20.6 ± 4.43 | 173.8 ± 9.32 | 110.1 ± 3.61 | 40.2 ± 13.2 | 3227 ± 1070 | -12.24 ± 1.66 | −28.08 ± 4.23 | -16.70 ± 1.67 | −37.42 ± 3.58
4 | CC[C@H](C)[C@H](NC(=O)[C@H](Cc1ccccc1)NC(=O)[C@H](C)NC(=O)C(C)(C)NC(=O)[C@H](CCC(N)=O)NC(=O)[C@H](C)NC(=O)[C@H](CCCCNC(=O)COCCOCCNC(=O)CC[C@H](NC(=O)CCCCCCCCCCCCCCCCCCC(=O)O)C(=O)O)NC(=O)[C@H](CCCCN)NC(=O)[C@H](CC(=O)O)NC(=O)[C@H](CC(C)C)NC(=O)[C@H](CC(C)C)NC(=O)[C@@H](NC(=O)[C@H](CO)NC(=O)[C@H](Cc1ccc(O)cc1)NC(=O)[C@H](CC(=O)O)NC(=O)[C@H](CO)NC(=O)[C@@H](NC(=O)[C@H](Cc1ccccc1)NC(=O)[C@@H](NC(=O)CNC(=O)[C@H](CCC(N)=O)NC(=O)C(C)(C)NC(=O)[C@@H](N)Cc1ccc(O)cc1)[C@@H](C)O)[C@@H](C)O)[C@@H](C)CC)C(=O)N[C@@H](CCC(=O)O)C(=O)N[C@@H](Cc1ccc(O)cc1)C(=O)N[C@@H](CC(C)C)C(=O)N[C@@H](CC(C)C)C(=O)N[C@@H](CCC(=O)O)C(=O)NCC(=O)NCC(=O)N1CCC[C@H]1C(=O)N[C@@H](CO)C(=O)N[C@@H](CO)C(=O)NCC(=O)N[C@@H](C)C(=O)N1CCC[C@H]1C(=O)N1CCC[C@H]1C(=O)N1CCC[C@H]1C(=O)N[C@@H](CO)C(N)=O [Example 18] | 27.6 ± 4.6 | 44.8 ± 8.3 | 57.3 ± 10.0 |  |  | 66.0 ± 10.21 | 190.0 ± 13.71 | 102.9 ± 5.37 | 109.5 ± 22.9 | 1958 ± 460.5 | -13.16 ± 0.82 | −28.48 ± 2.05 | -19.54 ± 2.37 | −43.02 ± 4.59
